# About 4,200 (1.3%) of roughly 330,000 compounds were called active. The shares of active, inactive and inconclusive entries below differ from those in the screen. Calls come from the whole dose curve; as a rule, active = well fitted activation curve with a large enough effect; inconclusive = small, poorly fitted or top-dose-only effect; inactive = no such curve, though single readings can be large or run the other way. Potencies beside an inconclusive call are fits to weak or partial responses and may not hold up.
# Assay: qHTS screen for small molecules that induce genotoxicity in human embryonic kidney (HEK293T) cells expressing luciferase-tagged ELG1; note: nearly all actives have a fitted effect of over 60% in size
# Conditions: HEK293T ELG1-luciferase reporter, luminescence, 16 h; series mostly up to 46 µM
# Summary of the method: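 Cells (2,000/well) expressing the ELG1-luciferase fusion are dosed by pin tool and kept 16 hr at 37 °C, 5% CO2. Signal comes from ONE-Glo luciferase reagent after 30 min at room temperature.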
# Potency is the fitted concentration of half-maximal effect; tags give direction and shape of the fitted curve.
row,Structure (SMILES),Potency
1,O=[N+]([O-])c1cc(Cl)cc(/C=N/Nc2nc3ccccc3s2)c1O,inactive
2,O=C(c1cnn(C(=O)c2ccco2)c1)c1ccccc1O,inactive
3,COc1ccc(CN2CCCCCC2)cc1Br,inactive
4,O=C(Nc1cccc(F)c1)Nc1ccnn1C1CCN(C(=O)c2ccccn2)CC1,"inconclusive: 32.6 µM [activator, partial curve, poor fit]"
5,O=S(=O)(Nc1ccc2nc(N3CCOCC3)sc2c1)c1ccc(Cl)cc1,inactive
6,CCOC(=O)c1c(C)[nH]c(C(=O)OCC(=O)NCc2ccc(F)cc2)c1C,"inconclusive: 8.2 µM [activator, partial curve, poor fit]"
7,COc1ccc(-c2cc3ccc(OCC(=O)NCC4CCC(C(=O)O)CC4)cc3oc2=O)cc1 (stereo not drawn),"inconclusive: 9.2 µM [activator, partial curve]"
8,COc1ccc(-c2noc(-c3ccccc3Cl)n2)cc1OC,"inconclusive: 8.2 µM [activator, partial curve]"
9,c1csc(-c2nc(-c3ccc(-c4ccon4)s3)no2)c1,active: 2.31 µM
10,O=C(c1cc(COc2ccc(F)c(F)c2)on1)N1CCOCC1,"inconclusive: 18.3 µM [activator, partial curve, poor fit]"
11,O=C(Nc1nc2ccccc2s1)c1cc2c(s1)-c1ccccc1OC2,active: 13 µM
12,CC(=O)Nc1cccc(C(=O)N/N=C/c2ccc(F)cc2)c1,active: 16.4 µM
13,C/C(=N\NC(=O)c1ccc(O)cc1)c1ccc2c(c1)OCCO2,"inconclusive: 25.9 µM [activator, partial curve, poor fit]"
14,COC(=O)c1ccc(C(=O)OC)c(-n2c(=O)c3ccccc3c3ccccc3c2=O)c1,"inconclusive: 18.4 µM [activator, partial curve, poor fit]"
15,O=C1NC(=S)N/C1=C\c1ccc(N2CCOCC2)cc1,"inconclusive: 29.1 µM [activator, single point]"
16,O=Nc1c2cc(-c3ccccc3)[nH]nc-2c2ccccc12,"inconclusive: 0.651 µM [activator, partial curve, poor fit]"
17,COc1ccc(C(=O)COC(=O)C(O)c2ccccc2)c(OC)c1 (stereo not drawn),"inconclusive: 11.6 µM [activator, partial curve, poor fit]"
18,COC(=O)c1ccccc1NC(=O)CSCC(=O)Nc1ccccc1,inactive
19,C=C(C)CNC(=O)c1ccc2nc(Cc3ccc(OC)cc3)oc2c1,"inconclusive: 7.3 µM [activator, partial curve]"
20,c1ccc(-c2noc(CC3CCCCC3)n2)nc1,"inconclusive: 3.66 µM [activator, full curve]"
21,COc1cccc(CN2CCN(C(=O)c3ccco3)CC2)c1,inactive
22,O=C(CSc1nc(-c2ccc(Cl)cc2)cs1)Nc1cccc([N+](=O)[O-])c1,inactive
23,O=C(O)c1cc(NC(=O)c2ccccc2F)cc(NC(=O)c2ccccc2F)c1,inactive
24,CNC(=O)c1[nH]nc2c1CCc1cc(OC)ccc1-2,"inconclusive: 20.6 µM [activator, single point]"
25,Cc1ccc(SCC(=O)Nc2ccc(-c3nnc(-c4ccco4)o3)cc2)cc1,"inconclusive: 18.4 µM [activator, partial curve]"
26,Nc1sccc1C(=O)c1ccc(Cl)cc1,active: 11.2 µM

row,Structure (SMILES),Potency
1,CC1CC2OC(=O)C3(C)CCCC(C)(C23)C1(O)CCc1ccoc1 (stereo not drawn),inactive
2,O=C(C1CCC(CNc2c(N3CCCC3)c(=O)c2=O)CC1)N1CCc2ccccc21 (stereo not drawn),inactive
3,Cc1ccc(-n2nc3cc(C)c(N)cc3n2)cc1,"inconclusive: 0.1 µM [activator, full curve, poor fit]"
4,CC(C)(C)c1ccc(C(=O)N2CCC(C(=O)NC3CCCCCC3)CC2)cc1,"inconclusive: 15.8 µM [activator, partial curve, poor fit]"
5,O=C(C1CCCN(S(=O)(=O)c2ccc(F)cc2)C1)N1CCCC1 (stereo not drawn),inactive
6,Cc1nc2cc(-c3ccc(Cl)cc3)nn2c(NCCN(C)C)c1C,"inconclusive: 18.3 µM [activator, single point]"
7,c1ccc(-n2cnc3cc(NCc4cccs4)ccc32)cc1,"inconclusive: 1.3 µM [activator, full curve]"
8,Cc1cccc(NC(=O)c2ccc3ccccc3n2)c1C,"inconclusive: 1.46 µM [activator, full curve]"
9,CCOc1ccccc1/C=C/c1nc2ccccc2[nH]c1=O,inactive
10,COc1ccc(C(=O)Nc2ccc(NC(=O)c3ccccc3F)cn2)cc1,inactive
11,Cc1ccccc1OCCC(=O)N1CCN(S(=O)(=O)c2ccc(Br)cc2)CC1,"inconclusive: 6.51 µM [activator, single point]"
12,COc1ccc(NC(=O)Nc2ccc(C)cc2Br)c(OC)c1,inactive
13,OCC(CO)(CO)N=Cc1c(O)ccc2ccccc12,inactive
14,CC(=O)c1cccc(OC(=O)c2cc(S(=O)(=O)N3CCOCC3)ccc2N2CCCC2)c1,inactive
15,CSc1nnc(-c2ccc(Cl)cc2Cl)o1,"inconclusive: 14.6 µM [activator, partial curve, poor fit]"
16,COC(=O)COc1ccc(NC(=O)c2ccco2)cc1,inactive
17,Brc1ccccc1/C=N/Nc1ccccn1,"inconclusive: 3.26 µM [activator, full curve, poor fit]"
18,COc1cccc(OCCSc2nnc3sc4ccccc4n23)c1,"inconclusive: 35.5 µM [activator, single point]"
19,CCOn1c(=O)c(-c2cc3ccccc3o2)[n+]([O-])c2ccccc21,"inconclusive: 4.11 µM [activator, full curve]"
20,O=C1NC(=S)N/C1=C/C=C/c1ccccc1,"inconclusive: 13 µM [activator, partial curve]"
21,Clc1ccc(-c2cn3cccnc3n2)cc1,active: 16.4 µM
22,O=C(NC(=S)Nc1ccccc1O)c1ccc(Cl)cc1Cl,"inconclusive: 32.6 µM [activator, partial curve, poor fit]"
23,CN(CC(=O)Nc1ccc2c(c1)CCC2)CC(=O)Nc1ccccc1Br,inactive
24,CCCCOC(=O)N1CCOCCOCCOCCOCC1,inactive
25,O=C(c1ccccc1)c1ccc(N2CCOCC2)c(F)c1,"inconclusive: 5.17 µM [activator, partial curve]"
26,CCc1ccc(C(=O)Nc2nc3ccccc3[nH]2)cc1,"inconclusive: 0.116 µM [activator, full curve, poor fit]"

row,Structure (SMILES),Potency
1,C/C(=N\NC(=O)c1cccs1)c1c(O)cc(C)oc1=O,"inconclusive: 25.9 µM [activator, partial curve, poor fit]"
2,Cc1cc(Cl)ccc1OCCCC(=O)NO,"inconclusive: 20.6 µM [activator, single point]"
3,Cc1ccnc(NC(=O)CNC(=O)Cc2cccc3ccccc23)c1,active: 14.6 µM
4,Cc1ccc(NC(=O)COc2cccc3ccc(C)nc23)c(Br)c1,inactive
5,Cc1nonc1NC(=O)c1oc2ccccc2c1C,"inconclusive: 16.4 µM [activator, single point]"
6,COc1ccc(C(=O)/C=C/Nc2ccc(S(=O)(=O)Nc3ncccn3)cc2)cc1,inactive
7,CCOC(=O)c1cnc2c(-c3cccc(Br)c3)cnn2c1C,"inconclusive: 9.2 µM [activator, partial curve]"
8,O=C(O)c1ccc(CNC(=O)C2CCCN2C(=O)OCc2ccccc2)cc1 (stereo not drawn),inactive
9,Cc1nc2ccc(NC(=O)c3cc([N+](=O)[O-])cc([N+](=O)[O-])c3Cl)cc2s1,"inconclusive: 20.6 µM [activator, partial curve, poor fit]"
10,Cc1cccc(OCC(=O)Nc2cccc(O)c2)c1,active: 10 µM
11,COc1cccc(C(=O)CSc2nccn2C)c1,"inconclusive: 16.4 µM [activator, partial curve]"
12,N/C(=N\OS(=O)(=O)c1ccc(Cl)cc1)c1ccccn1,active: 23.1 µM
13,Cc1ccc(Nc2nc(N)nc(CSC(=S)N3CCOCC3)n2)cc1,"inconclusive: 16.4 µM [activator, partial curve, poor fit]"
14,COc1ccc(N2CCN(C(=O)C(C)(C)Oc3ccc(Cl)cc3)CC2)cc1,"inconclusive: 25.9 µM [activator, single point]"
15,O=C(Nc1ccc2c(c1)OCCO2)C1CCCN(c2ncccn2)C1 (stereo not drawn),"inconclusive: 4.11 µM [activator, single point]"
16,O=C(CNC(=O)c1ccc2c(c1)OCO2)N/N=C(Br)/C=C/c1ccccc1,inactive
17,Cc1c(C(=O)N(C)c2ccc(Cl)cc2)cnn1-c1ccccc1,inactive
18,O=C(N/N=C/c1ccccc1O)c1cc[n+]([O-])cc1,inactive
19,CSc1ncccc1C(=O)OCC(=O)c1cc(C)n(C)c1C,"inconclusive: 8.2 µM [activator, single point]"
20,S=C(NCCc1ccccc1)N1CCCCC1,"inconclusive: 20.6 µM [activator, single point]"
21,c1ccc(-c2nnc(-c3ccccc3)o2)cc1,"inconclusive: 11.6 µM [activator, partial curve]"
22,CN(CCCC1CCCC1)C(=O)CCc1nnc(-c2ccccc2)o1,active: 20.6 µM
23,CN1CCN(c2ccc(-c3ccnn3C(=O)Nc3ccccc3)cc2)CC1,"inconclusive: 20.6 µM [activator, partial curve]"
24,N#Cc1cnc2nc(SCc3ccccc3)nn2c1,"inconclusive: 10.3 µM [activator, partial curve]"
25,COc1ccc(SN=C2C(C)=CC(=O)C=C2C)cc1,inactive
26,Cc1ccc(C(=O)Nc2cccc(C(=O)O)c2)cc1S(=O)(=O)N1CCCCC1,"inconclusive: 0.58 µM [activator, full curve, poor fit]"

# — PubChem BioAssay AID504466 (National Center for Advancing Translational Sciences (NCATS), 2011)
